# From ChEMBL document CHEMBL4888484, “Replenishing the malaria drug discovery pipeline: Screening and hit evaluation of the MMV Hit Generation Library 1 (HGL1) against asexual blood stage Plasmodium falciparum ,using a nano luciferase reporter read-out” (2022)
# In all, about 150,000 compounds went through this assay and about 540 (0.36%) showed an effect of 50% or more. The list shows a part of the results.
# Test system: Plasmodium falciparum
# Experiment: Primary screen in NF54 nanoGlo assay, in single point, at 2uM, 72h; a lower Z score goes with more inhibition
# Type: functional, Erythrocyte
# Conditions: timepoint 72 hour
Structure (SMILES),% Inhibition [%],Z score
COC(=O)c1ccc(C[N+]2(Cc3ccc(C(=O)OC)cc3)CCCC2)cc1,3,-0.51
CO[C@H]1C[C@H]2CN(Cc3cc(C)nn3C)[C@@H](Cc3ccccc3)C(=O)N2C1,-7,0.96
CCc1nc(NC(=O)N2CCC(F)(F)[C@@H](CO)C2)sc1C,-10,1.81
O=C(c1cc(-c2ccccc2)n[nH]1)N1CCCCCC1,-3,0.5
Cc1noc(C(F)(F)F)c1C(=O)NC[C@@H](c1cccs1)N1CCC(C)CC1,2,-0.27
Cc1nnc(CN2CCC(CC(=O)N3CCCC3)CC2)s1,-3,0.48
Fc1ccccc1-c1noc(-c2cncnc2N2CCc3ccccc32)n1,0,-0.07
c1cncc(-c2n[nH]cc2CNC[C@H]2COc3ccccc3O2)c1,6,-1.18
Cc1noc([C@@H](NCC2CCCC2)C(C)C)n1,-1,0.12
COc1ccsc1C(=O)N(C)C1CCN(Cc2ccncc2)CC1,-13,1.14
O=S(=O)(c1ccc2c(c1)OCCO2)N1CCC[C@H](c2nc3ccccc3s2)C1,-4,0.62
Clc1ccc([C@@H]2c3cccn3CCCN2Cc2cccc(Oc3ccccc3)c2)cc1Cl,-1,0.11
CN(C)[C@H]1CCN(Cc2nc(-c3ccncc3)nn2CC(F)(F)F)C1,-11,1.52
COc1ccc(-c2cc(-c3ccccn3)nc(N)c2C#N)cc1C,10,-1.84
CCCn1c(C(=O)NCCOC)cc2cc(NC(=O)c3ccccc3Cl)ccc21,10,-1.24
CCOC(=O)Nc1ccc(Cl)cn1,2,-0.33
CN(c1cccnn1)S(=O)(=O)c1ccc(Br)c(F)c1,5,-0.74
O=C(c1n[nH]c2ccccc12)N1C[C@@H]2CC[C@H]1CN(Cc1ccncc1)C2,-23,1.99
c1ccc2oc(-c3nnc4n3CCCC[C@H]4C3CCOCC3)cc2c1,-10,1.63
COc1ncccc1-c1nc(C)nc(O)c1Cl,-8,1.5
CC1CCCC(OCc2nnc(-c3nnc(-c4ccccc4)o3)o2)C1 (configuration not stated),-16,1.57
Cc1c(Cl)ccc2c(C(=O)Nc3cccc4ccccc34)cc(-c3cccs3)nc12,2,-0.24

Structure (SMILES),% Inhibition [%],Z score
Cc1c(C(=O)NCCCN2CCOCC2)nnn1-c1ccc2ncccc2c1,9,-0.89
NC1(c2ccc(Cl)cc2)Cc2ccccc2C1,-13,1.7
CCCCS(=O)(=O)N(C)C(=O)Cc1c(C)nn(C)c1C,-11,1.13
COc1ccc(Nc2nc(C)c(NC(=O)c3cccs3)c(Nc3ccc(OC)cc3)n2)cc1,-8,1.66
Cc1cc(C)nc(NC[C@H]2CCCO2)n1,-5,0.64
COc1cnc(NC(=O)N2Cc3ccccc3NC(=O)[C@@H]2C)s1,-5,0.72
Cc1ccccc1C(=O)Nc1sc2c(c1C(=O)N1CCN(Cc3ccccc3)CC1)CC[C@H](C)C2,0,-0.03
C=Cc1cccc(-c2nccn2CCCN2CCC(C(N)=O)CC2)c1,-7,0.82
c1ccc(-c2cn[nH]c2C2CCN(c3ncnc4[nH]cnc34)CC2)cc1,-15,1.53
CN(CC(N)=O)C[C@H]1CN(c2ncnc3nc(N)ccc23)CCO1,-23,2.82
O=C(NCc1ccsc1)Nc1cccs1,-5,0.72
O=C(Nc1cccnc1C1CC1)c1csnn1,-5,0.84
O=C(N[C@@H](Cc1cccc(F)c1)c1cccc(F)c1)c1ccc(=O)[nH]n1,7,-0.94
NC(=O)C1CCN(C(=O)Nc2ccc3c(c2)OCCO3)CC1,-10,1.57
Cc1ccccc1OCC(=O)NCC1(N2CCOCC2)CCCCC1,0,-0.03
CC(C)N(C)C(=O)C1CCN(C(=O)[C@@H](N)C(C)(C)C)CC1,-1,0.1
COc1ccc2c(c1)CN(C(=O)C1(C#N)CCCC1)CC2,0,0.03
COc1ccc(C(=O)NS(=O)(=O)C2CCCCC2)cn1,-7,1.1
COCCC[C@H]1CCCCN1C(=O)c1ncoc1C1CC1,-7,0.92
Cn1ccc(C(=O)N2C3CCC2CC(F)C3)n1 (configuration not stated),-8,0.88
CC[C@@H](C(=O)OC)N(C(=O)c1csnc1C)c1ccccc1,1,-0.13
O=C(c1cc(F)ccc1O)N(Cc1ccc(F)cc1)C1CCOCC1,-2,0.38

Structure (SMILES),% Inhibition [%],Z score
O=C(N1CCc2ccccc2C1)C1(c2ccccc2)CCOCC1,-13,1.17
O=C(NCc1cccnc1)[C@@H]1CCC(=O)N1C1CCN(C(=O)c2ccccc2F)CC1,-17,1.85
CCCCn1c(N)c(N(C(=O)c2nn(C)c(=O)c3ccccc23)C2CCCC2)c(=O)[nH]c1=O,-39,4.57
O=C(N[C@H]1CCOC[C@@H]1OCC1CC1)c1ccccc1-c1ccccc1,-2,0.34
CCN(C(=O)c1ccc(F)cc1Br)[C@@H](C)CS(=O)(=O)CC,-8,1.49
Cc1cnc(C2CCC2)n1CCNC(=O)Cc1ccccc1,-1,0.19
C=C(C)CNC(=O)Cc1c2c(n(Cc3ccc(F)cc3)c1C)CCCC2=O,-16,1.47
Cc1cnccc1N1CCN(C[C@]2(O)CCCN(CC3CCCCC3)C2=O)CC1,-8,0.91
Cc1ccc2ccccc2c1NC(=O)NC[C@H]1CCCOC1,-11,1.14
CCN(CC)S(=O)(=O)c1ccc2c(c1)CCCN2C(=O)c1ccc2ccccc2c1,38,-4.87
Cc1csc(NC2CCN(C(=O)c3oc(CC4CC4)nc3C)CC2)n1,-13,1.78
CN(Cc1ccc(C#CCO)cc1)C[C@H]1CCCCN1C,4,-0.81
Cc1ccc(OCC2CCN(C(=O)c3c[nH]cn3)CC2)nn1,3,-0.37
CC(C)n1nccc1-c1ccc(CN(C)C)cc1,-15,1.47
Cn1c(=O)c2c(nc(CNC3CCCCCCC3)n2Cc2ccccc2)n(C)c1=O,-5,0.61
CCOCC(=O)N1CCc2[nH]nc(C(=O)N3CCN(c4ccccc4C)CC3)c2C1,8,-0.93
CCC(=O)Nc1cc(C(=O)N[C@H]2CCCCNC2=O)c2c(c1)nc(Cc1ccccc1)n2C,1,-0.14
CCC[C@H](C)C(=O)Nc1cccc(Cl)c1Cl,-19,3.72
c1ccc(C(c2ccccc2)N2CCN(c3nn4cnnc4c4ccccc34)CC2)cc1,81,-11.8
CCc1noc(C)c1C(=O)OCC1CCC1,-10,1.6
COC(=O)C(C)(C)CCN1CCOC(C2CCCO2)C1 (configuration not stated),-9,1.15
CCCCCOCC(=O)Nc1cn(C)nc1C,19,-2.44

Structure (SMILES),% Inhibition [%],Z score
O=C1CC[C@@]2(CCCN(C(=O)c3c[nH]c(=O)[nH]3)C2)CN1CCc1ccccc1,-6,0.99
Cc1ccccc1CS(=O)(=O)N1CCCc2ccccc21,-9,1.25
O=C(Nc1nnc[nH]1)[C@@H]1COCC(=O)N1Cc1ccccc1,-9,1.49
O=C(Nc1cccnc1-n1cccn1)c1ccccc1,15,-1.94
Cc1ncn(Cc2nc(C3CCCC3)no2)c(=O)c1C,-11,1.7
O=C(Nc1ccccc1)c1ccc(N(CCO)CC2CC2)nn1,-6,1.27
Cc1ccc(S(=O)(=O)c2c(C(=O)N3CCCC3)cnc3ccc(C)cc23)cc1,-25,2.37
N#CC1(NC(=O)c2nc(-c3cccc(C(F)(F)F)c3)cs2)CC1,5,-0.58
C[C@@H](NC(=O)N1CCN2C(=O)NCC2C1)c1ccc(Cl)cc1 (some centres not stated),-5,0.86
CC(C)c1nnc(CON=C(N)c2cccc(Cl)c2)o1,-13,1.12
CO[C@@H](C(=O)N(C)CCN1CCCC1)c1ccccc1,-11,2.28
O=C(NCCc1noc(CO)n1)c1cncc(O)c1,0,0.01
Cc1ccc(C(C)NC(=O)C2CC3CCC2O3)cc1F (configuration not stated),0,-0.03
COC(=O)c1cc(OC(F)(F)F)ccc1N,-8,1.16
O=S(=O)(Cc1ccccc1)NC[C@H]1Cn2c(-c3ccc(Cl)cc3)cnc2CO1,31,-3.59
Cc1cccc(CN(Cc2ccccn2)C(=O)Nc2nnc(C(C)C)s2)c1,-18,2.07
COc1ccc(C(=O)C(c2cn(C)c3ccccc23)c2cn(C)c3ccccc23)cc1,-1,0.16
COc1cccc(NC(=O)Cc2nnc3ccc(-c4nc(C)no4)cn23)c1,-8,1.32
CCc1noc(C)c1CNc1cccc(C(=O)O)n1,0,0.06
CCCN1CCN(C(=O)c2cc(C)n[nH]2)[C@H]2CS(=O)(=O)C[C@H]21,-14,2.31
